Results from ChEMBL document CHEMBL4888484, “Replenishing the malaria drug discovery pipeline: Screening and hit evaluation of the MMV Hit Generation Library 1 (HGL1) against asexual blood stage Plasmodium falciparum ,using a nano luciferase reporter read-out” (2022).
The campaign covered roughly 150,000 compounds. About 540 (0.36%) showed an effect of 50% or more. Some of the results follow.

Each compound was assayed on Plasmodium falciparum (assay: Primary screen in NF54 nanoGlo assay, in single point, at 2uM, 72h; a lower Z score goes with more inhibition). Conditions: timepoint 72 hour.
Format: functional, Erythrocyte

Compared with `Cc1ccc(NC(=O)N2C[C@@H](C)N(C)[C@@H](C)C2)c(C)n1`, `Cc1cccc(CN2C[C@@H](C(=O)O)C[C@H](C(=O)Nc3ccc(C)nc3)C2)c1` is higher in “% Inhibition” value: -1% for the first, 3% for the second.

First: CC(C)CN1CC[C@H](N(C)C)[C@H](CCC(=O)O)C1
Second: CC(C)c1nc(NC2CCCCCC2C(N)=O)nc(N(C)C)n1 (stereo not drawn)
The “% Inhibition” value of the first is lower: -8% for the first, -5% for the second.

First: Cc1nc(-c2ccc(Br)cc2Cl)nn1CN1CCOC[C@@H]1C
Second: Cc1cccc(-n2ncnc2C[C@H]2CCCOC2)c1
The “% Inhibition” value of the first is lower: -10% for the first, -6% for the second.

Compared with `COc1cc(Cn2nnc(C3CC3)n2)ccn1`, `Cc1ccc(C(=O)O)c(N2C[C@H]3CC[C@@H](C2)N(Cc2ccccn2)C3=O)n1` is lower in “% Inhibition” value: 7% for the first, -15% for the second.

Compared with `O=C(N[C@H]1CNCCC1(F)F)c1scnc1C1CC1`, `O=C(N[C@H]1CCCC(F)(F)C1)C1CCN(c2ccc3nncn3n2)CC1` is higher in “% Inhibition” value: 3% for the first, 6% for the second.

Compared with `CN(C)CC(=O)N1CCN(Cc2ccccc2)[C@@H]2CS(=O)(=O)C[C@@H]21`, `CNCC(=O)Nc1nn(Cc2ccccc2)c2cccc(N3CCOCC3)c12` is higher in “% Inhibition” value: -11% for the first, -3% for the second.

Compared with `Nc1nc(NC2CC2)cc(-c2ccc(C(=O)N3CCCCCC3)cc2)n1`, `O=C(c1c(O)ccc2ccccc12)N1CC[C@@]2(CCCN(CC3CC3)C2=O)C1` is lower in “% Inhibition” value: -16% for the first, -18% for the second.

Going from `O=C(CCCOc1ccccc1)Nc1ccc2c(O)ccnc2c1` to `c1ccc(-c2nc(-c3cn[nH]c3)c3ccccc3n2)cc1`, the “% Inhibition” value falls from 1% to 0%.

Compared with `Cc1c(CC(=O)NC[C@H]2CCCCO2)c2c(n1Cc1ccccc1)CCCC2=O`, `CN(CCCOc1ccccc1)C[C@@H]1CCCN2CCCC[C@H]12` is lower in “% Inhibition” value: -1% for the first, -6% for the second.

Compared with `COc1ccccc1CCc1nnc(CCC(=O)N2CCN(C)C[C@@H]2C(C)C)o1`, `Cc1ccsc1C(=O)N1CCC[C@H]1c1nnc2ccccn12` is higher in “% Inhibition” value: -6% for the first, -5% for the second.

Compared with `O=C(NCCCNC(=O)c1ccco1)c1cccc(F)c1`, `C[C@H](c1ccccc1)c1cc(C(=O)NCCO)on1` is higher in “% Inhibition” value: -24% for the first, -9% for the second.

First: CC(=O)Nc1nc(C(=O)N2CCOC[C@@H]2CC(F)F)cs1
Second: CC(C)(C)n1cc(C(=O)N2CCC[C@@H]2CC(=O)c2ccccc2)cn1
The “% Inhibition” value of the first is higher: 0% for the first, -9% for the second.

First: CC1(C)C[C@H](NCCc2nnc3ccccn23)CN1Cc1ccccc1
Second: N#Cc1ccc(S(=O)(=O)Nc2nnc3ccccn23)cc1
The “% Inhibition” value of the first is higher: 0% for the first, -10% for the second.

First: N#Cc1cccc(N2C(=O)NC3(CCCC3)C2=O)c1
Second: COC[C@H](C)NC(=O)C1=NN(c2ccccc2)C(=O)CN1
The “% Inhibition” value of the first is higher: 38% for the first, 12% for the second.

Going from `Cc1nc(-c2c(C#N)c(N)nc3c2CCc2cc(O)ccc2-3)c[nH]1` to `Fc1ccc(-n2cc(-c3noc(-c4ccc5cc[nH]c5c4)n3)nn2)cc1`, the “% Inhibition” value falls from 3% to -16%.

Compared with `COC[C@H](C)Oc1cccc(CN(C2CC2)S(=O)(=O)c2ccc(F)cc2F)c1`, `O=S(=O)(N[C@H]1COc2ccccc21)c1ccc2c(c1)OCCO2` is lower in “% Inhibition” value: 1% for the first, -2% for the second.

Going from `C=C1CCC(NC(=O)N2CCNC2=O)CC1` to `CC(CC(=O)NC1CCC(=O)N(C)C1)NC(=O)C1CCCC1` (stereo not drawn), the “% Inhibition” value falls from -2% to -17%.

Going from `COC1CCC(CCNC(=O)Cc2cncnc2)CC1` (stereo not drawn) to `O=C(OCC(F)(F)F)N1CCC[C@@H]1CCc1ccccn1`, the “% Inhibition” value rises from -1% to 7%.

Compared with `CCn1nnc2ccc(-c3noc([C@H](C)NC(=O)c4ccccc4)n3)cc21`, `CN(C(=O)C1=Cc2cc(Br)ccc2OC=C1)c1ccccc1` is higher in “% Inhibition” value: -6% for the first, -3% for the second.

Compared with `CN(CC1CCCOC1)c1cc(N(C)CC2CCCOC2)ncn1` (stereo not drawn), `Cc1nn(C)c2nc(-c3ccccn3)nc(N(C)CCN3CCCC[C@@H]3C)c12` is higher in “% Inhibition” value: -6% for the first, 5% for the second.

Compared with `Cc1cc(C(=O)N2CC(F)(F)C[C@H]2c2nncn2CC2CC2)nn1C`, `O=C([C@@H](c1ccncc1)C1CCCC1)N1CC(N2CCCC2=O)C1` is lower in “% Inhibition” value: -2% for the first, -10% for the second.

Compared with `CCN(CN1C(=O)C(=O)c2cc3c(cc21)OCCO3)C(C)C`, `COc1cc(Cl)c(C)cc1NC(=O)CN(CC(=O)O)C(C)C` is lower in “% Inhibition” value: -1% for the first, -11% for the second.

First: C[C@H](NC(=O)CCNC(N)=O)c1ccc(Cl)s1
Second: CC(C)N(Cc1cnn(C)c1)C(=O)CNc1ccccc1Cl
The “% Inhibition” value of the first is higher: -3% for the first, -8% for the second.

Compared with `CN(Cc1ccccc1)Cc1cn([C@H]2CO[C@H]3[C@@H]2OC[C@@H]3NS(=O)(=O)c2cccs2)nn1`, `COc1ccccc1N1C(O)=Nc2ccccc2S1(=O)=O` is higher in “% Inhibition” value: 9% for the first, 29% for the second.

`O=C(C1c2ccccc2Oc2ccccc21)N1CCC(Oc2cccnn2)CC1` and `O=C(C1COc2ccccc2O1)N1C2CCC1CC(n1cccn1)C2` (stereo not drawn) are the same in “% Inhibition” value: -17% for the first, -17% for the second.

Going from `Brc1cnn(C(c2ccccc2)(c2ccccc2)c2ccccc2)c1` to `C#CCOc1c(OC)cccc1[C@H]1CC(=O)NCc2nc(N(C)C)sc21`, the “% Inhibition” value rises from -6% to -4%.

Going from `COc1ccc(CCNC(=O)Cn2c(C)nc3onc(C)c3c2=O)cc1OC` to `CCc1nnc(CN(CC)C(=O)NCc2ccoc2)o1`, the “% Inhibition” value rises from -5% to -4%.

Compared with `Cc1ccc(NC(=O)N2C[C@@H](C)N(C)[C@@H](C)C2)c(C)n1`, `Cc1cccc(CN2C[C@@H](C(=O)O)C[C@H](C(=O)Nc3ccc(C)nc3)C2)c1` is lower in Z score: 0.13 for the first, -0.47 for the second.

First: CC(C)CN1CC[C@H](N(C)C)[C@H](CCC(=O)O)C1
Second: CC(C)c1nc(NC2CCCCCC2C(N)=O)nc(N(C)C)n1 (stereo not drawn)
The Z score of the first is higher: 0.97 for the first, 0.66 for the second.

First: Cc1nc(-c2ccc(Br)cc2Cl)nn1CN1CCOC[C@@H]1C
Second: Cc1cccc(-n2ncnc2C[C@H]2CCCOC2)c1
The Z score of the first is higher: 1.43 for the first, 0.63 for the second.

First: COc1cc(Cn2nnc(C3CC3)n2)ccn1
Second: Cc1ccc(C(=O)O)c(N2C[C@H]3CC[C@@H](C2)N(Cc2ccccn2)C3=O)n1
The Z score of the first is lower: -0.87 for the first, 1.78 for the second.

First: O=C(N[C@H]1CNCCC1(F)F)c1scnc1C1CC1
Second: O=C(N[C@H]1CCCC(F)(F)C1)C1CCN(c2ccc3nncn3n2)CC1
The Z score of the first is higher: -0.45 for the first, -1.25 for the second.

Compared with `CN(C)CC(=O)N1CCN(Cc2ccccc2)[C@@H]2CS(=O)(=O)C[C@@H]21`, `CNCC(=O)Nc1nn(Cc2ccccc2)c2cccc(N3CCOCC3)c12` is lower in Z score: 1.7 for the first, 0.54 for the second.

Compared with `Nc1nc(NC2CC2)cc(-c2ccc(C(=O)N3CCCCCC3)cc2)n1`, `O=C(c1c(O)ccc2ccccc12)N1CC[C@@]2(CCCN(CC3CC3)C2=O)C1` is higher in Z score: 1.46 for the first, 1.69 for the second.

First: O=C(CCCOc1ccccc1)Nc1ccc2c(O)ccnc2c1
Second: c1ccc(-c2nc(-c3cn[nH]c3)c3ccccc3n2)cc1
The Z score of the first is lower: -0.1 for the first, -0.06 for the second.

First: Cc1c(CC(=O)NC[C@H]2CCCCO2)c2c(n1Cc1ccccc1)CCCC2=O
Second: CN(CCCOc1ccccc1)C[C@@H]1CCCN2CCCC[C@H]12
The Z score of the first is lower: 0.16 for the first, 1.21 for the second.

Going from `COc1ccccc1CCc1nnc(CCC(=O)N2CCN(C)C[C@@H]2C(C)C)o1` to `Cc1ccsc1C(=O)N1CCC[C@H]1c1nnc2ccccn12`, the Z score falls from 0.86 to 0.51.

Compared with `O=C(NCCCNC(=O)c1ccco1)c1cccc(F)c1`, `C[C@H](c1ccccc1)c1cc(C(=O)NCCO)on1` is lower in Z score: 2.87 for the first, 1.62 for the second.

First: CC(=O)Nc1nc(C(=O)N2CCOC[C@@H]2CC(F)F)cs1
Second: CC(C)(C)n1cc(C(=O)N2CCC[C@@H]2CC(=O)c2ccccc2)cn1
The Z score of the first is lower: -0.01 for the first, 0.87 for the second.

Compared with `CC1(C)C[C@H](NCCc2nnc3ccccn23)CN1Cc1ccccc1`, `N#Cc1ccc(S(=O)(=O)Nc2nnc3ccccn23)cc1` is higher in Z score: -0.01 for the first, 1.32 for the second.

Going from `N#Cc1cccc(N2C(=O)NC3(CCCC3)C2=O)c1` to `COC[C@H](C)NC(=O)C1=NN(c2ccccc2)C(=O)CN1`, the Z score rises from -3.85 to -1.68.

Going from `Cc1nc(-c2c(C#N)c(N)nc3c2CCc2cc(O)ccc2-3)c[nH]1` to `Fc1ccc(-n2cc(-c3noc(-c4ccc5cc[nH]c5c4)n3)nn2)cc1`, the Z score rises from -0.44 to 3.06.

First: COC[C@H](C)Oc1cccc(CN(C2CC2)S(=O)(=O)c2ccc(F)cc2F)c1
Second: O=S(=O)(N[C@H]1COc2ccccc21)c1ccc2c(c1)OCCO2
The Z score of the first is lower: -0.13 for the first, 0.38 for the second.

Compared with `C=C1CCC(NC(=O)N2CCNC2=O)CC1`, `CC(CC(=O)NC1CCC(=O)N(C)C1)NC(=O)C1CCCC1` (stereo not drawn) is higher in Z score: 0.25 for the first, 2.02 for the second.

Going from `COC1CCC(CCNC(=O)Cc2cncnc2)CC1` (stereo not drawn) to `O=C(OCC(F)(F)F)N1CCC[C@@H]1CCc1ccccn1`, the Z score falls from 0.14 to -0.86.

Going from `CCn1nnc2ccc(-c3noc([C@H](C)NC(=O)c4ccccc4)n3)cc21` to `CN(C(=O)C1=Cc2cc(Br)ccc2OC=C1)c1ccccc1`, the Z score falls from 0.96 to 0.47.

First: CN(CC1CCCOC1)c1cc(N(C)CC2CCCOC2)ncn1 (stereo not drawn)
Second: Cc1nn(C)c2nc(-c3ccccn3)nc(N(C)CCN3CCCC[C@@H]3C)c12
The Z score of the first is higher: 0.81 for the first, -0.7 for the second.

First: Cc1cc(C(=O)N2CC(F)(F)C[C@H]2c2nncn2CC2CC2)nn1C
Second: O=C([C@@H](c1ccncc1)C1CCCC1)N1CC(N2CCCC2=O)C1
The Z score of the first is lower: 0.35 for the first, 1.1 for the second.

Compared with `CCN(CN1C(=O)C(=O)c2cc3c(cc21)OCCO3)C(C)C`, `COc1cc(Cl)c(C)cc1NC(=O)CN(CC(=O)O)C(C)C` is higher in Z score: 0.16 for the first, 1.25 for the second.

First: C[C@H](NC(=O)CCNC(N)=O)c1ccc(Cl)s1
Second: CC(C)N(Cc1cnn(C)c1)C(=O)CNc1ccccc1Cl
The Z score of the first is lower: 0.54 for the first, 1.24 for the second.

First: CN(Cc1ccccc1)Cc1cn([C@H]2CO[C@H]3[C@@H]2OC[C@@H]3NS(=O)(=O)c2cccs2)nn1
Second: COc1ccccc1N1C(O)=Nc2ccccc2S1(=O)=O
The Z score of the first is higher: -1.01 for the first, -3.97 for the second.

Compared with `O=C(C1c2ccccc2Oc2ccccc21)N1CCC(Oc2cccnn2)CC1`, `O=C(C1COc2ccccc2O1)N1C2CCC1CC(n1cccn1)C2` (stereo not drawn) is lower in Z score: 3.28 for the first, 2.21 for the second.

Compared with `Brc1cnn(C(c2ccccc2)(c2ccccc2)c2ccccc2)c1`, `C#CCOc1c(OC)cccc1[C@H]1CC(=O)NCc2nc(N(C)C)sc21` is lower in Z score: 0.89 for the first, 0.52 for the second.

Going from `COc1ccc(CCNC(=O)Cn2c(C)nc3onc(C)c3c2=O)cc1OC` to `CCc1nnc(CN(CC)C(=O)NCc2ccoc2)o1`, the Z score falls from 0.76 to 0.51.
